In all, about 110,000 compounds went through this assay and about 230 (0.21%) showed an effect of 50% or more. This is one part of the list.
These compounds were tested against DPAP1 (Plasmodium falciparum, UniProt Q8IIJ9) (assay: primary screen, percent inhibition; read by cleavage of a fluorogenic dipeptide substrate; higher = more effect of the substance).
Set-up: species or system P. falciparum D10 trophozoite lysates; single well
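Further: 30 min substrate incubation versus DMSO and 10 µM JCP410 controls.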

Sequence of DPAP1 (Q8IIJ9 whole entry, looked up): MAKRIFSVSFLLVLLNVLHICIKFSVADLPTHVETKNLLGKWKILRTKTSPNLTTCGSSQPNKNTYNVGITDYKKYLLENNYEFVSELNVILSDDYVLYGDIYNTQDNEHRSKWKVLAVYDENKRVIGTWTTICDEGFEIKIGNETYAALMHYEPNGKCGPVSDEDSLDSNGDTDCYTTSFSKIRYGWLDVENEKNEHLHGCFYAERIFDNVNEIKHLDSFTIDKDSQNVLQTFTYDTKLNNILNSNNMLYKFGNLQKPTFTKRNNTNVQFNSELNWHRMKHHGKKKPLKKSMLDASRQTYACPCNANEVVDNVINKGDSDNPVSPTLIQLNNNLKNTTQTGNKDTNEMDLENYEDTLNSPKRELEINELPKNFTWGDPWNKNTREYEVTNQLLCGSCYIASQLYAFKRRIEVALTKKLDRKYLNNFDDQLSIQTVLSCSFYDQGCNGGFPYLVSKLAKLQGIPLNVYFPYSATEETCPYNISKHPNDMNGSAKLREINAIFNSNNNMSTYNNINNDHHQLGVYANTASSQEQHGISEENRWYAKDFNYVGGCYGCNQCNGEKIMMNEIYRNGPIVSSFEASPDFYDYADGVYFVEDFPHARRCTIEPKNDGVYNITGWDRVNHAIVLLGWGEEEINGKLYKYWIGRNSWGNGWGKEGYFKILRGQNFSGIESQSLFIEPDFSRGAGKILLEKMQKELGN

Row | SMILES | % Inhibition @ 10 uM
1 | CN(CCC#N)C(=O)c1cc2c(=O)n3ccccc3nc2n1C | 3.92%
2 | CCc1ccc(N2C(=O)CSC2c2ccc(Br)cc2)cc1 (stereo not shown) | -0.414%
3 | CCOc1ccc(/C=C2/SC(Nc3ccccc3O)=NC2=O)cc1 | 11.6%
4 | C1=CC2CC1CC2CN1CCN(Cc2c[nH]c3ccccc23)CC1 (stereo not shown) | 12.2%
5 | Cc1nnc2n(C)c(=O)c3c4c(sc3n12)CCC4 | -5.28%
6 | N#Cc1c(-c2ccccc2)cc(-c2ccccc2)nc1N1CCOCC1 | -1.38%
7 | CCOc1ccc(C(=O)C2=C(O)C(=O)N(CCN(CC)CC)C2c2ccc(OC)cc2)cc1C (stereo not shown) | -0.178%
8 | CC(=O)n1c2c(c3ccccc31)CCCC2=O | 1.83%
9 | Cc1cc(OCC(=O)N2CCCC2)c2c(C)c(Cc3ccccc3)c(=O)oc2c1 | -0.386%
10 | c1cnc2cc3c(cc2n1)Nc1nonc1N3 | -1.29%
11 | Fc1ccccc1-c1nn2c(COc3ccccc3)nnc2s1 | 1.74%
12 | CC1CCN(C(=O)COc2ccc(S(=O)(=O)NC3CCCCC3)cc2)CC1 | 2.98%
13 | Cc1ccc(-n2ncc(C(=O)NCCCN3CCCCC3)c2-n2cccc2)cc1 | 3.38%
14 | Cc1cccc(OCC(=O)Nc2ccc(Nc3ccccc3)cc2)c1 | -2.3%
15 | Cc1ccc(/C=C2\SC(N3CCCCC3)=NC2=O)cc1 | 13.2%
16 | O[C@]12CCCC[C@@H]1[C@@H](c1cccnc1)NCC2 | 4.89%
17 | COc1ccccc1C(CC(=O)Nc1nccs1)c1ccc2c(c1)OCO2 (stereo not shown) | -1.6%
18 | CC(Cc1c[nH]c2ccccc12)NCc1ccc(N(C)C)cc1 (stereo not shown) | 9.68%
19 | Cc1cccc(NS(=O)(=O)c2cccc(C(=O)Nc3ccccc3C)c2)c1 | 1.64%
20 | Cc1cccc(C(=O)NCc2ccco2)c1 | 5.09%
21 | COc1ccc(/C=C2/S/C(=N\c3ccccc3)N(C)C2=O)c(C)c1 | -7.9%
22 | Cc1cc(C)cc(NS(=O)(=O)c2ccc(NC(=O)COc3ccccc3)cc2)c1 | 0.245%
23 | O=C(Cn1ncc2ccsc2c1=O)N1CCC2(CC1)OCCO2 | 0.44%
24 | CCOc1ccc(/N=C2/S/C(=C\c3cccs3)C(=O)N2CC)cc1 | -9.56%
25 | O=C1c2cccnc2C(=O)N1CCc1ccc(S(=O)(=O)N2CCN(Cc3ccccc3)CC2)cc1 | -1.43%
26 | c1cc2c(cc1C13CC4CC(CC(C4)C1)C3)c1c3n2CCNC3CCC1 (stereo not shown) | -1.61%
27 | O=C1N/C(=C/c2ccc(F)cc2)C(=O)N1Cc1ccccc1F | -1.32%
28 | Cc1cc(-c2[nH]nc3c2C(c2c(C)nn(-c4ccccc4)c2Cl)C(C#N)=C(N)O3)c(C)s1 (stereo not shown) | 2.38%

— article PMC6919601, “Identification of Plasmodium dipeptidyl aminopeptidase allosteric inhibitors by high throughput screening” (PLoS ONE, 2019)
